Measured values taken from US20070280957A1, “Change of the Load State of Mhc Molecules” (priority 2004, published 2007).

Tests used:
Type in all cases: cell-based
[1] = molecular target: T1, HLA-DR1 (DRB1*0101) on L57.23 cells (Homo sapiens, UniProt P01903+P01911, A100R/D57E/F55L/F60I/F76Y/I96L/L162R/M171V/P40L/Q125E/R42F/V115G/Y59C); experiment: Loading of HLA-DR1 on the cell surface of fibroblast cells with biotinylated peptide, flow cytometry
T1 construct: expressed in transfected cells; host or cells: L57.23 fibroblast cells

[2] = molecular target: T2, HLA-DR4 (DRB1*0401) on L243.6 cells (Homo sapiens, UniProt P01903+P01911, A100K/A169T/F76Y/I96L/K127E/L162R/M171V/N62H/P40V/Q125Y/R42H/S133A/S149N/S66Y/V115G/V209L/W38E); experiment: Loading of HLA-DR4 on the cell surface of fibroblast cells with biotinylated peptide, flow cytometry
T2 construct: expressed in transfected cells; host or cells: L243.6 fibroblast cells

HLA-DR1 tetramers = molecular target: T3, HLA-DR1 tetramers (Homo sapiens, UniProt P01903+P01911, A100R/D57E/F55L/F60I/F76Y/I96L/L162R/M171V/P40L/Q125E/R42F/V115G/Y59C); experiment: Loading of MHC class II tetramers (ligand replacement IC106-120 by HA306-318), staining of T-cells, flow cytometry
T3 construct: purchased Proimmune Ltd

## OCCC12CC3CC(CC(C3)C1)C2 [I 1, 2-(1-adamantyl)-ethanol]
[1]; 8 μM HA-biot., 0.1, 0.05, 0.025 mM vs pCP 1, 0.5, 0.25 mM (ten times lower concentrations)
  loading of membrane-located HLA-DR1 complexes compared with pCP: almost equally high loading
[1]; L57.23 cells, 4 hours, 37° C., active at markedly less than a tenth of the pCP concentration
  loading of cells with HA306-318, dose-activity curves compared with pCP: substantially more active than pCP
[2]; 8 μM HA-biot., a tenth of the pCP concentration
  loading of HLA-DR4 complexes compared with pCP: increased loading compared to pCP
[2]; L243.6 cells, 4 hours, 37° C., active at markedly less than a tenth of the pCP concentration
  loading of cells with HA306-318, dose-activity curves compared with pCP: substantially more active than pCP
HLA-DR1 tetramers; HLA-DRw52a-restricted TT1272-1284-specific A10 T-cells
  staining of A10 T-cells (negative control, antigen specificity) with catalyst-loaded tetramers: not stained
HLA-DR1 tetramers; overnight incubation with catalyst and HA306-318
  signal of PD2 T-cells stained with IC tetramers loaded with HA306-318: of a similar height to that delivered by the pre-prepared HA tetramers
